The record followed here is PMC4336329 (PLoS ONE, 2015).

About 14,000 (4.5%) of roughly 310,000 compounds showed an effect of 50% or more. The effect is printed as a negative number. Some of the results follow.
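Also: peak tail current of the secondary pulse compared with the same well before compound.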

Chain of human ether-à-go-go-related gene (hERG) potassium channel (Q12809 whole entry, looked up): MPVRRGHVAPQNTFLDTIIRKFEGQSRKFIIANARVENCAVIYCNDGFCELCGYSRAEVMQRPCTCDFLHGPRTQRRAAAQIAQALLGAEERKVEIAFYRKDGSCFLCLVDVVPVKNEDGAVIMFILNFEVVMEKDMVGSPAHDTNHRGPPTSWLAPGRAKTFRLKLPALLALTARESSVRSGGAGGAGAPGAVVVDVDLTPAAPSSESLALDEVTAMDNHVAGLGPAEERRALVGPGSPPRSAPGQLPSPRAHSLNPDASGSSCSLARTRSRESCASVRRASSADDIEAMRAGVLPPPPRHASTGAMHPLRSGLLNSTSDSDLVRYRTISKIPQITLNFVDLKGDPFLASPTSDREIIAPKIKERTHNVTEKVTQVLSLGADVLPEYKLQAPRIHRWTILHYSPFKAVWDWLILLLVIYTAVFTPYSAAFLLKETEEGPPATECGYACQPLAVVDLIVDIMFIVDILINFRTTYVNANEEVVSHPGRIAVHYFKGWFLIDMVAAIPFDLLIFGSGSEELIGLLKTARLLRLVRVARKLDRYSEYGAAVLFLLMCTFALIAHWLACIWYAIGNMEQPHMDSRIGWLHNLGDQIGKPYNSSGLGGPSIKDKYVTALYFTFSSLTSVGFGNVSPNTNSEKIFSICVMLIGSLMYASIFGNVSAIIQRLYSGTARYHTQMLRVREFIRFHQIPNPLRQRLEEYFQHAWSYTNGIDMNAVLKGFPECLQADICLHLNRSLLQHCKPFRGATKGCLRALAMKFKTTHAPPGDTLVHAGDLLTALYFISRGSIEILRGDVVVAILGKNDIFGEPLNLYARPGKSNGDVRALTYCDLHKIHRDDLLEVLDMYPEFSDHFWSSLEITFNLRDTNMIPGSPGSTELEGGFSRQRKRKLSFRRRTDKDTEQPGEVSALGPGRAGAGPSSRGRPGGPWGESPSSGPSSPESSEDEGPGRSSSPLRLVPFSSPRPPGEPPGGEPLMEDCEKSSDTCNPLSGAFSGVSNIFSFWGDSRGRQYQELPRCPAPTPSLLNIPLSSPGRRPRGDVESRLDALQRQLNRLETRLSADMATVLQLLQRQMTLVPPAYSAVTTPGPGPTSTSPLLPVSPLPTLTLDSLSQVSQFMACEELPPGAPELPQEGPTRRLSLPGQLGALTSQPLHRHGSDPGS

This test addresses human ether-à-go-go-related gene (hERG) potassium channel (human, UniProt Q12809). Nature of the test: primary screen, population patch clamp on CHO cells stably expressing hERG.
With `CC(=O)c1ccc(NC(=O)c2cc(C)no2)cc1`, the “hERG current change (%, negative = inhibition) at 10uM” value is listed as 8.25%. The value for `CCN(CC)c1ccc(N=Cc2ccccc2[N+](=O)[O-])cc1` was -5.7%; that for `CCC(=O)Nc1nnc(SCCOC)s1` was 2.56%; that for `CCNC(=S)NNC(=O)c1cc(Br)cs1` was 2.59%. `Cc1ccc(N2CCCn3c2cc(C)c(C#N)c3=O)cc1C`: the “hERG current change (%, negative = inhibition) at 10uM” value is on record as -21.4%.

On to `Cc1nc(CCNC(=O)c2ccccc2)cs1`, for which the “hERG current change (%, negative = inhibition) at 10uM” value is 24.3%. For the compound `CCOCCCNC(=S)NC1CC2CCC(C1)N2Cc1ccccc1` (stereo not drawn), the “hERG current change (%, negative = inhibition) at 10uM” value is listed as -23%.

Take `COC(=O)c1ccccc1NC(=S)N(Cc1ccc2c(c1)OCO2)Cc1cc2cccc(C)c2[nH]c1=O`: the “hERG current change (%, negative = inhibition) at 10uM” value came out at 1.24%. The value for `COc1ccc(-n2c(C)cc3cc(OC(C)=O)ccc32)cc1` was 10.5%; that for `COc1ccc(N2C(=O)c3cccc4cccc(c34)C2=O)cc1` was 19.3%. The value for `COC(=O)c1cccc(Nc2cc(C)nc(-c3ccccc3O)n2)c1` was 10.2%.

Turning to `O=C(/C=C/c1cccc(C(F)(F)F)c1)Nc1cccc(C(F)(F)F)c1`, the “hERG current change (%, negative = inhibition) at 10uM” value amounted to 12.4%. In the case of `Cc1ccc([N+](=O)[O-])c2c1C(N1CCCC1)C(C)(C)O2` (stereo not drawn), the “hERG current change (%, negative = inhibition) at 10uM” value was 11.3%.

As for `N=C1/C(=C\c2coc3ccc(O)cc3c2=O)C(=O)N=C2SC=CN12`, the “hERG current change (%, negative = inhibition) at 10uM” value was -4.16%.

For the compound `Cc1cccc(/C=N/NC(=O)c2cc(Br)ccc2O)n1`, the “hERG current change (%, negative = inhibition) at 10uM” value was -4.99%. Take `CCCCC(=O)N1C/C=C\C(c2ccc(OC)cc2)N(Cc2ccc(F)cc2)C(=O)[C@H]1Cc1ccccc1` (stereo partly drawn): the “hERG current change (%, negative = inhibition) at 10uM” value was found to be 7.51%. On to `COc1ccc(NC(=S)NCC(O)c2ccccc2)c(OC)c1` (stereo not drawn), for which the “hERG current change (%, negative = inhibition) at 10uM” value stood at 3.4%. For the compound `Nn1c(SCC(=O)Nc2c(F)cc(F)cc2Br)nnc1C1CCCCC1`, the “hERG current change (%, negative = inhibition) at 10uM” value is reported as 3.21%.

Consider `CCC(C(=O)NCCCc1ccccc1)n1nc(C)c2c(C)n(-c3ccccc3)nc2c1=O` (stereo not drawn), for which the “hERG current change (%, negative = inhibition) at 10uM” value is listed as -35.9%. As for `Cc1ccc(NS(=O)(=O)c2cc(C(=O)N3CCOCC3)ccc2C)cc1C`, the “hERG current change (%, negative = inhibition) at 10uM” value is reported as -5.85%. `COc1ccc(S(=O)(=O)N2CCOCC2)cc1NC(=O)CO/N=C/c1ccccc1OC(F)F`: the “hERG current change (%, negative = inhibition) at 10uM” value was -2.92%. Take `COc1ccc(/C=C2/SC(c3ccc(C)cc3)=NC2=O)cc1OC`: the “hERG current change (%, negative = inhibition) at 10uM” value amounted to 8.4%. Consider `COc1ccccc1-c1nnc(SCC(=O)NNC(=O)c2ccccc2F)n1C`, for which the “hERG current change (%, negative = inhibition) at 10uM” value is 5.84%. The value for `COCCn1c(=NC(=O)c2ccc(S(=O)(=O)N3CCc4ccccc4C3)cc2)sc2cc(OC)ccc21` was 15.1%; that for `CCc1cc(C(=O)NCC(C)(C)N2CCOCC2)sc1C` was 0.751%; that for `COc1cccc(NC(=O)COc2cccc(-n3cnnn3)c2)c1` was -50.8%. For `CC(CCc1ccco1)NC(=O)CCc1nnc2ccc(NCc3ccccc3)nn12` (stereo not drawn), the “hERG current change (%, negative = inhibition) at 10uM” value is listed as 8.48%. `Cn1c(CNC(=O)c2ccccc2F)nnc1SCc1nc2ccccc2c(=O)[nH]1`: the “hERG current change (%, negative = inhibition) at 10uM” value was found to be 14.4%. `CCOc1ccccc1OCC(=O)OCC(=O)Nc1ncc(Cl)cc1Cl`: the “hERG current change (%, negative = inhibition) at 10uM” value turned out to be 8.39%. The same measure for `CC(=O)Oc1ccc2oc(C)c(C(=O)N3CCOCC3)c2c1`: -8.91%; for `CCOc1ccc2c(c1)OC(c1ccc(C)cc1)(C(F)(F)F)NC2=O` (stereo not drawn): 5.42%. For the compound `Cc1ccc(S(=O)(=O)N(C)c2ccc(C(=O)NCc3ccccc3F)cc2)cc1`, the “hERG current change (%, negative = inhibition) at 10uM” value is given as -17.1%.

As for `CCOC(=O)c1oc2ccc(CNCCO)c(Cl)c2c1C`, the “hERG current change (%, negative = inhibition) at 10uM” value is given as 3.43%. `CCCOc1cccc(C2C(C(=O)c3ccc(C)o3)=C(O)C(=O)N2c2nc(C)c(C(C)=O)s2)c1` (stereo not drawn): the “hERG current change (%, negative = inhibition) at 10uM” value is 9.66%. Turning to `O=C(CSc1nnc(-c2cccs2)o1)N1CCCc2ccccc21`, the “hERG current change (%, negative = inhibition) at 10uM” value is reported as 3.02%. `CC(OC(=O)c1nccnc1N)C(=O)Nc1ccc(S(=O)(=O)N2CCCC2)cc1` (stereo not drawn): the “hERG current change (%, negative = inhibition) at 10uM” value is recorded as -11%. For the compound `Cc1cc(C)n(-c2ccc(F)cc2CN2CCN(Cc3ccccc3)C(CCO)C2)n1` (stereo not drawn), the “hERG current change (%, negative = inhibition) at 10uM” value is listed as -37.2%.

`CCCCOCCCNC(=O)c1c(-c2ccccc2)noc1C`: the “hERG current change (%, negative = inhibition) at 10uM” value was determined as 3.4%.

For `C=CCc1ccc(OCc2ccc(C(=O)O)o2)c(OC)c1`, the “hERG current change (%, negative = inhibition) at 10uM” value came out at 24.6%. Take `CCSc1nc(O)cc(=O)n1CC`: the “hERG current change (%, negative = inhibition) at 10uM” value worked out at 29.4%. For the compound `CCOC(=O)/C(=N\Nc1cccc(C(F)(F)F)c1)N1CCOCC1`, the “hERG current change (%, negative = inhibition) at 10uM” value is listed as -16.7%. The same measure for `C[n+]1ccccc1/C=C1\Sc2ccccc2N1CCO.[I-]`: -2.79%. Take `Cc1cccc(-n2c(C)nc3sccc3c2=O)c1`: the “hERG current change (%, negative = inhibition) at 10uM” value is 17.1%. As for `O=C(Nc1ccc(F)cc1)N1CCN(C(=O)C2CCCO2)CC1` (stereo not drawn), the “hERG current change (%, negative = inhibition) at 10uM” value worked out at 2.96%. For the compound `COc1ccc(S(=O)(=O)/N=C2\C=C(NS(=O)(=O)c3ccccc3)C(=O)c3ccccc32)cc1`, the “hERG current change (%, negative = inhibition) at 10uM” value is on record as -16.2%. For `O=C(Nc1ccccc1)c1cn(CCBr)cn1`, the “hERG current change (%, negative = inhibition) at 10uM” value was 17.3%. In the case of `COC(=O)Oc1c(Br)c(=O)oc2ccccc12`, the “hERG current change (%, negative = inhibition) at 10uM” value is 16.4%. On to `COc1ccc(COC(=O)C2CCN(S(=O)(=O)c3ccc(Cl)cc3)CC2)cc1`, for which the “hERG current change (%, negative = inhibition) at 10uM” value is 30%. The same measure for `CCc1nc(SCC(=O)c2ccccc2)c2ccccc2n1`: 12.9%; for `CN(C)S(=O)(=O)c1cccc(NC(=S)N2CCCCC2CO)c1` (stereo not drawn): -6.33%; for `COc1cc2ccccc2cc1C(=O)Nc1cccnc1`: -9.84%. As for `Cc1ccccc1-n1c(SCC(=O)c2c(N)n(C)c(=O)n(C)c2=O)nc2sc3c(c2c1=O)CCCC3`, the “hERG current change (%, negative = inhibition) at 10uM” value was found to be 33.5%.

For the compound `Cn1c(=O)c2cc(S(=O)(=O)NCCC(=O)NC3CCCCCCC3)ccc2n(C)c1=O`, the “hERG current change (%, negative = inhibition) at 10uM” value is recorded as -13.2%. As to `Cc1nc(N2CCC(C)CC2)c2nnn(Cc3ccccc3)c2n1`, the “hERG current change (%, negative = inhibition) at 10uM” value is on record as -0.828%. Turning to `O=C(NC1CCCCC1)C(c1ccc(F)cc1)N(CCc1ccccc1)C(=O)CN1C(=O)c2ccccc2S1(=O)=O` (stereo not drawn), the “hERG current change (%, negative = inhibition) at 10uM” value is given as 15.8%. Consider `CC1=C(C)/C(=N\OS(=O)(=O)c2ccccc2)C=CC1=O`, for which the “hERG current change (%, negative = inhibition) at 10uM” value was -10.7%. For `Cc1n[nH]c(C)c1CCc1nc2c3ccccc3nc(SCC(=O)Nc3ccccc3F)n2n1`, the “hERG current change (%, negative = inhibition) at 10uM” value is reported as 17.7%.
